# Source: the supplement of paper PMC7826260
# The list shows a part of the results. Viral Rep nickase domains cut single-stranded DNA in vitro (3 µM enzyme, 1 h, 37 °C); shown is the middle of each 90-letter strand. The score is log2 (uncut reads / reads without enzyme); more negative means more cut, near 0 not cut, and no call is made. Counts are relative to all reads, so uncut sequences can rise above 0 when many others are cut.
# Tested on: T1, Rep nickase domain of tomato golden mosaic virus
# T1 sequence (protein, residues 1-124, tag omitted): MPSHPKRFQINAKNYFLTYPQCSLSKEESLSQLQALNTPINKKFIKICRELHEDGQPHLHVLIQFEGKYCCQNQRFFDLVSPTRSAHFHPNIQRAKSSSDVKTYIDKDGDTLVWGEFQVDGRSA
# Assay: uncleaved DNA left, log2 of reads against the no-enzyme library (log2 ratio); higher = less cleavage (more negative = more Rep cleavage of the k-mer); sequences stand for … in CTCGTCCG…ACCGGAGA
# Protocol: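 A pool of 90-nt single-stranded DNAs with seven random bases just before the constant AC of the nick site (name = the seven bases) was cut by 3 µM recombinant His6-SUMO-tagged Rep nickase domain (300 nM DNA, 50 mM HEPES pH 8.0, 50 mM NaCl, 1 mM MnCl2, 1 h, 37 °C, three replicates). Uncut DNA was amplified and sequenced.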
row,Sequence,uncleaved DNA left (log2)
1,CTGCCGA,-0.0532
2,ACTACCA,-0.0165
3,TACCACC,-0.189
4,CACACAA,-0.0459
5,ACTGTCT,-0.0301
6,ACTTCAC,0.122
7,CTGCATG,-0.172
8,GAATACG,0.0494
9,GTGAGAC,0.116
10,GGACGTC,0.042
11,ATCACCT,-0.0471
12,CACGATC,-0.0504
13,ATTCCAC,-0.0781
14,CAATTGT,-3.21
15,CGTGGGT,-0.164
16,TATGCGT,-0.209
17,GTAAACG,-0.0243
18,CTGGCAG,-0.00768
19,GCTAATC,0.0653
20,CGAGGTT,0.299

row,Sequence,uncleaved DNA left (log2)
1,TATACAC,0.055
2,GGGACAG,0.204
3,CTAAGGG,0.093
4,CGCGGCG,-0.0857
5,TGCAAAG,0.176
6,CCATTGT,-0.351
7,AGTGACG,0.0684
8,AAATACC,-0.44
9,ATTACGC,0.0922
10,GTGGCAC,0.191
11,ATTGGAT,0.145
12,AAATTCA,-0.161
13,GCGATGG,-0.0566
14,CAACAAT,0.158
15,CAGGATA,0.188
16,GATTCCT,-0.209
17,GATCTAC,0.149
18,ATGTCAT,-0.0628
19,TCCCTGC,0.0166
20,CGGTCAC,-0.284
